In the RNAGym collection of RNA variant scans (doi:10.1073/pnas.2313332121):
Variants at the floor of the assay are shown more often than the library holds them.

B1: TPR 5TU (parent)
chain: GGAUCUUCUCGAUCUAACAAAAAAGACAAAUCUGCCACAAAGCUUGAGAGCAUCUUCGGAUGCAGAGGCGGCAGCCUUCGGUGGCGCGAUAGCGCCAACGUUCUCAACUAUGACACGCAAAACGCGUGCUCCGUUGAAUGGAGUUUAUCAUG

Variants of: B1
Assay: polymerase ribozyme fitness, log enrichment relative to wild type (log ratio); higher = more active; in vitro selection for triplet polymerase activity
How it was run: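 To select mutant libraries of each subunit of a heterodimeric triplet polymerase ribozyme, built by PCR and transcribed, each was annealed with a biotinylated primer, partner subunit and triplets, then incubated frozen at −7 °C. Extended constructs were gel-excised, captured on streptavidin beads and amplified by RT-PCR, in one round carried out in triplicate. Illumina sequencing of input and output libraries kept genotypes with ≥10 input reads and ≥1 read per output. Fitness is the base-2 logarithm of genotype enrichment relative to wild-type enrichment, from inverse-variance-weighted replicate averages.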

| Variant | polymerase ribozyme fitness (log ratio) |
| --- | --- |
| C76G C85A A147U | ≤ -4.2 |
| G83C G86A U101C G124U G133U | ≤ -4.2 |
| G84C U111G C114G A138U | ≤ -4.2 |
| U78G C116U A137C | ≤ -4.2 |
| C76G U109G A110G | ≤ -4.2 |
| G83U A121C A142U | -1.46 |
| G84A C87U A89U G128A | ≤ -4.2 |
| G84A G124U | -0.556 |
| G84U A89U C96U C99G A106G A121U A137C | ≤ -4.2 |
| U82G A98C C103A A138C U144G | ≤ -4.2 |
| G83C C85G A122U | ≤ -4.2 |
| U77C C87G A142G | ≤ -4.2 |
| U82G A121G | -0.49 |
| C79A U151C | ≤ -4.2 |
| G81A U90C A150G | ≤ -4.2 |
| G80U C96A U109A | ≤ -4.2 |
| C76A U78C C99A C105A | ≤ -4.2 |
| U82C A115U G136C | -3.84 |
| C79A A91G A110G | ≤ -4.2 |
| U77G G86C C105U U130G | ≤ -4.2 |
| G80A C85A A142C | -2.14 |
| G81C G140C | -3.7 |
| G80U A110C G141U | ≤ -4.2 |
| C76U C95U | 0.961 |

| Variant | polymerase ribozyme fitness (log ratio) |
| --- | --- |
| U77C C105U U139A | ≤ -4.2 |
| U82G C87A C93A | ≤ -4.2 |
| C76A C85A A89C A91G G140U U146C | ≤ -4.2 |
| G84A G88U C96G A113U U144G | ≤ -4.2 |
| C79G U82C G126A A150G | ≤ -4.2 |
| C79A C103G C131A | ≤ -4.2 |
| C79A G94C C95A | ≤ -4.2 |
| G83A G86U C95U C116U U146C C149U | ≤ -4.2 |
| G81A G152U | -3.09 |
| G84A G136C U139C | ≤ -4.2 |
| U82G C95A A110U A138U | ≤ -4.2 |
| C76A C79A C96U G141C | ≤ -4.2 |
| G81U C96U | -1.85 |
| G83C U145G | -0.686 |
| C76U U77C C85U C108A A120U | ≤ -4.2 |
| G80U G84A G126C C132U U145A | -3.25 |
| G80C C95U C99A G133U | ≤ -4.2 |
| C79U G86U | ≤ -4.2 |
| G84U C99G U148A | ≤ -4.2 |
| G83C U90G A91G | ≤ -4.2 |
| G84C A121U A122C | -1.63 |
| U77A G92A C105U A106C A121G | ≤ -4.2 |
| G83U A98C C123U C125U C129A | -3.47 |
| G80C A91G | ≤ -4.2 |

| Variant | polymerase ribozyme fitness (log ratio) |
| --- | --- |
| G84A G100U C125G | ≤ -4.2 |
| U82G A110G C125G A137U | ≤ -4.2 |
| G80U C103G G152A | ≤ -4.2 |
| C76G G84U C116A | ≤ -4.2 |
| C76A C96U U145G | -0.785 |
| U78C C79A C85A G112U U139A | ≤ -4.2 |
| G83C C131G | -3.32 |
| G84U U101G A107C G136A | ≤ -4.2 |
| C75U U134A | -1.13 |
| G81C C85U | 0.0549 |
| G83A A91G C93U C149A | ≤ -4.2 |
| U78G C85G A142G U146C | ≤ -4.2 |
| G81C G143C | -2.03 |
| C79A G80C U109C | ≤ -4.2 |
| G83U G88U A107U A110G A121U | ≤ -4.2 |
| C76U C87A | -3.85 |
| C79A A106G G140C | ≤ -4.2 |
| G80A C114U A137C | -3.92 |
| G83U A91U C105A A113U C149A | ≤ -4.2 |
| C79A G86U A89C C103G | ≤ -4.2 |
| C75U U144C | -0.607 |
| C76A U145C | -0.484 |
| C76A U77G C79U A91U C132U G140A | ≤ -4.2 |
| C76U A150C | -3.79 |

| Variant | polymerase ribozyme fitness (log ratio) |
| --- | --- |
| C79G G81U G92A C95A | ≤ -4.2 |
| U82A U146A | -0.606 |
| C76U A110G A122G G140C | ≤ -4.2 |
| U82G G86U C123U | -1.47 |
| G83U U90G C118A | ≤ -4.2 |
| G83A A98U | -0.299 |
| U82C G84A A98U A115U G141A | -2.58 |
| G84U C114G A115G | ≤ -4.2 |
| C79U U109G | ≤ -4.2 |
| U77G A91G G152A | ≤ -4.2 |
| G84U G140A | ≤ -4.2 |
| C79G C85G C96G U146A C149A | ≤ -4.2 |
| U78G G94A A122G | ≤ -4.2 |
| G81C G84U G126C | -2.04 |
| G80A G88U C149A | ≤ -4.2 |
| G81C C103U U134G | -2.49 |
| U78G G92A G141A | ≤ -4.2 |
| G83C U148G G152A | -3.67 |
| C79A U82C G84U A119U | ≤ -4.2 |
| G84U A106C | -2.1 |
| G84C G126A C131A U145G | ≤ -4.2 |
| U77A G128A U134A A142U | ≤ -4.2 |
| C76U C93A | -2.34 |
| G84U G86C C93G A98U A142U | -1.78 |

| Variant | polymerase ribozyme fitness (log ratio) |
| --- | --- |
| G83U C93A G143C | ≤ -4.2 |
| C76A C131G U139A A150G | ≤ -4.2 |
| G84U G88A A120C | ≤ -4.2 |
| U77C C96U U145C | ≤ -4.2 |
| G83A U102G | ≤ -4.2 |
| G80C C87U A89C | ≤ -4.2 |
| G84U C85G G124U U148C | ≤ -4.2 |
| G83C G126A | 0.0538 |
| G83C G126U | 0.246 |
| U77A G94U U151G | ≤ -4.2 |
| G83U G86C A89C C114G C125U A147G | ≤ -4.2 |
| C76G A115G A121U | ≤ -4.2 |
| C76U U135G | -2.79 |
| C79A U82G C93A G141U G152U | ≤ -4.2 |
| G83A U101C | -2.23 |
| G80U U109C G143C | -4.04 |
| U78G A89U C93G A106G C118G U145C A150U U151G | ≤ -4.2 |
| C79U C85G G124U | ≤ -4.2 |
| G84U A110C G126A G141A | ≤ -4.2 |
| G84A C123G | -0.679 |
| G84A C87U A106C G141A U144G | ≤ -4.2 |
| G84U A137C G141A | ≤ -4.2 |
| G83U C95U A119U G133U | ≤ -4.2 |
| U78G U90G C131A | ≤ -4.2 |

| Variant | polymerase ribozyme fitness (log ratio) |
| --- | --- |
| C76U G112A G152A | ≤ -4.2 |
| G81C | -0.471 |
| G81U | -0.702 |
| G81A | -0.305 |
| G80A A119U | -0.405 |
| C79A G117A | ≤ -4.2 |
| G83A C118A C129A | -3.64 |
| U82G G92U C131A | -3.24 |
| C79U C99A G100C | ≤ -4.2 |
| G83A A115G | -1.64 |
| C76A C85A | -1.96 |
| U82G G86U A107G | ≤ -4.2 |
| C76A G83C A137G | -3.62 |
| U82A U102G | -2.54 |
| G83A G128U G140C A142G | ≤ -4.2 |
| G81C C85G C95G | -3.07 |
| G84A A98G C105A | -1.05 |
| U77C U90A A119G A137G | ≤ -4.2 |
| U78C | -0.318 |
| U78G | ≤ -4.2 |
| U78A | -3.62 |
| U82G A138G A150C | ≤ -4.2 |
| G83A C118A G133A | ≤ -4.2 |
| G83C C93G G112A A115C | ≤ -4.2 |

| Variant | polymerase ribozyme fitness (log ratio) |
| --- | --- |
| G84A A97U A147U | 0.467 |
| C76A C105A G136A | ≤ -4.2 |
| G84A C114G G124A U134C | -3.53 |
| G80U C125A | -1.04 |
| U77A G92A C118A G136U | ≤ -4.2 |
| G81A G94C C99U A138U | ≤ -4.2 |
| U77G C93A A97U G133C | ≤ -4.2 |
| G81U G92U U148G G152A | -3.95 |
| G83U G100U C103A C131U | ≤ -4.2 |
| U77A U78C G94U C95G C105U | ≤ -4.2 |
| G83A C95U A106C A107G | -3.5 |
| C76A A97G | -1.4 |
| C79A C96A | -4.03 |
| C79A C96U | ≤ -4.2 |
| U82A A137U U146G | ≤ -4.2 |
| G80U G84U G94A G117A U134A | ≤ -4.2 |
| C79A A98G A137U | ≤ -4.2 |
| G81U C85A U139G | -0.703 |
| G81A C93U C95U | -1.11 |
| G84A C118A | -1.61 |
| U77A G80C U90G C105U U111C | ≤ -4.2 |
| C76G C85A G88C C95A A115C | ≤ -4.2 |
| G83A A97C U139A | ≤ -4.2 |
